{"source": "patent US8247220B2", "about": "“Optical indicator for detecting bacterial pathogens” (Kimberly-Clark Worldwide, Inc., priority 2008, dated 2012)", "tested_on": "gram-negative bacteria", "test": "Visible colour change of Reichardt's dye-coated absorbent substrate, serial dilutions of bacteria", "conditions": "100 μl aliquot on dye-coated substrate, colour change visible to the eye"}
{"smiles": "[O-]c1c(-c2ccccc2)cc(-[n+]2c(-c3ccccc3)cc(-c3ccccc3)cc2-c2ccccc2)cc1-c1ccccc1", "note": "[Reichardt's dye, 4-(2,4,6-triphenylpyridinium-1-yl)-2,6-diphenylphenolate]", "values": [{"measurement": "lower limit for indication of gram-negative bacteria", "value": 1000, "unit": "CFU/ml"}]}
